Laboratory results: the antibiotic and cytotoxicity screens of Wong et al. (2023)
This is one part of the list.

Test system: HepG2
Assay: cytotoxicity call (relative viability < 0.9)
Details: 10 µM

Compound	cytotoxicity call
Cc1noc(C)c1NC(=O)N(C)C[C@H]1Oc2c(NC(=O)Nc3cccc4ccccc34)cccc2C(=O)N([C@H](C)CO)C[C@@H]1C	inactive
C[C@H](CO)N1C[C@H](C)[C@@H](CN(C)Cc2ccncc2)Oc2c(NC(=O)c3ccncc3)cccc2C1=O	inactive
Cc1noc(C)c1S(=O)(=O)N(C)C[C@H]1Oc2ccc(NC(=O)Cn3cnnn3)cc2CC(=O)N([C@@H](C)CO)C[C@H]1C	inactive
C[C@@H]1CCCCO[C@@H](CN(C)S(=O)(=O)c2cccs2)[C@@H](C)CN([C@@H](C)CO)C(=O)c2cc(NS(C)(=O)=O)ccc2O1	inactive
C[C@@H]1CN([C@@H](C)CO)C(=O)c2cc(NS(=O)(=O)c3cccs3)ccc2O[C@@H](C)CCCCO[C@@H]1CN(C)Cc1ccc(C(F)(F)F)cc1	inactive
COc1ccc(CN(C)C[C@@H]2OCCCC[C@@H](C)Oc3ccc(NC(=O)C4CCCCC4)cc3C(=O)N([C@H](C)CO)C[C@@H]2C)cc1	inactive
CC(C)NC(=O)Nc1ccc2c(c1)C(=O)N([C@@H](C)CO)C[C@H](C)[C@H](CN(C)Cc1ccc3c(c1)OCO3)O2	inactive
CC(C)C[C@@H]1NC(=O)[C@H]2C[C@@H](C(=O)NCCCCCCNC(=O)CS)[C@@H](c3ccc(O)cc3)N2C1=O	inactive
C[C@@H]1CN([C@@H](C)CO)C(=O)c2cccc(NC(=O)Nc3ccc(F)cc3)c2O[C@H]1CN(C)Cc1ccc(C(F)(F)F)cc1	inactive
O=C(C[C@@H]1C=C[C@@H](NC(=O)CN2CCOCC2)[C@@H](CO)O1)NC1CCC1	inactive
COc1ccc(NC(=O)Nc2ccc3c(c2)C(=O)N([C@@H](C)CO)C[C@H](C)[C@H](CN(C)C(=O)Cc2ccccc2)OCCCC[C@@H](C)O3)cc1	inactive
C[C@H]1CN([C@@H](C)CO)C(=O)Cc2cc(NC(=O)c3ccncc3)ccc2O[C@H]1CN(C)S(=O)(=O)c1ccc(Cl)cc1	inactive
C[C@@H]1CCCCO[C@@H](CN(C)S(C)(=O)=O)[C@@H](C)CN([C@@H](C)CO)C(=O)c2cc(NS(C)(=O)=O)ccc2O1	inactive
CC1(C)OC2CC3C4CC(F)C5=CC(=O)C=CC5(C)C4(F)C(O)CC3(C)C2(C(=O)CO)O1 (stereo not given)	inactive
COc1ccc(NC(=O)Nc2ccc3c(c2)CC(=O)N([C@@H](C)CO)C[C@H](C)[C@@H](CN(C)Cc2ccc(Oc4ccccc4)cc2)O3)cc1	inactive
C(=N\c1ccccc1)/c1ccc(Oc2ccccc2)cc1	inactive
Cc1ccc(S(=O)(=O)Nc2ccc3c(c2)C(=O)N([C@@H](C)CO)C[C@H](C)[C@H](CN(C)Cc2ccncc2)OCCCC[C@H](C)O3)cc1	inactive
C[C@@H]1CCCCO[C@@H](CN(C)C(=O)NC2CCCCC2)[C@H](C)CN([C@@H](C)CO)C(=O)c2cc(NC(=O)Nc3ccc4c(c3)OCO4)ccc2O1	inactive
CC(=O)OCCNC(=O)c1cccnc1	inactive
CCCNC(=O)Nc1ccc2c(c1)C(=O)N(C)C[C@H](OC)[C@H](C)CN(Cc1ccc(-c3ccccn3)cc1)[C@H](C)CO2	inactive

Compound	cytotoxicity call
Nn1nnc2ccccc21	inactive
Cc1ccc(S(=O)(=O)Nc2ccc3c(c2)C(=O)N([C@@H](C)CO)C[C@@H](C)[C@@H](CN(C)S(C)(=O)=O)O3)cc1	inactive
C[C@@H]1CN([C@H](C)CO)C(=O)c2cc(NC(=O)Nc3ccc(C(F)(F)F)cc3)ccc2O[C@@H](C)CCCCO[C@@H]1CN(C)S(=O)(=O)c1ccc(F)cc1	inactive
C[C@@H]1CCCCO[C@@H](CN(C)C(=O)C2CCCCC2)[C@@H](C)CN([C@@H](C)CO)C(=O)c2cc(NS(=O)(=O)c3ccc(F)cc3)ccc2O1	inactive
COc1ccccc1O	inactive
C[C@H]1CCCCO[C@@H](CN(C)C(=O)Nc2ccc(C(F)(F)F)cc2)[C@@H](C)CN([C@@H](C)CO)C(=O)c2cc(NC(=O)Nc3ccc(F)cc3)ccc2O1	inactive
COCCC(=O)NS(=O)(=O)c1ccccc1	inactive
COc1ccc([C@@H]2CC(=O)c3c(O)cc(O[C@@H]4O[C@H](CO)[C@@H](O)[C@H](O)[C@H]4O[C@@H]4O[C@@H](C)[C@H](O)[C@@H](O)[C@H]4O)cc3O2)cc1O	inactive
C[C@H](N[C@@H](CCc1ccccc1)C(=O)O)C(=O)N1CCC[C@H]1C(=O)O	inactive
C[C@@H]1CCCCO[C@@H](CN(C)Cc2ccccc2)[C@H](C)CN([C@@H](C)CO)C(=O)c2cc(NC(=O)Nc3ccc(C(F)(F)F)cc3)ccc2O1	active
C[C@@H]1CN([C@H](C)CO)C(=O)c2cc(NC(=O)Cc3cn(C)c4ccccc34)ccc2O[C@H]1CN(C)Cc1ccc(Oc2ccccc2)cc1	inactive
COc1ccc(NC(=O)N(C)C[C@@H]2OCCCC[C@H](C)Oc3ccc(NS(=O)(=O)c4ccc(F)cc4)cc3C(=O)N([C@@H](C)CO)C[C@@H]2C)cc1	inactive
Cc1n[nH]c(=O)nc1NCCCOC(C)C	inactive
C[C@@H]1CCCCO[C@@H](CN(C)Cc2ccc(Cl)c(Cl)c2)[C@H](C)CN([C@@H](C)CO)C(=O)c2cc(NC(=O)Nc3cccc4ccccc34)ccc2O1	inactive
Cc1csc(-c2nnc(Nc3ccc(Oc4ncccc4-c4ccnc(N)n4)cc3)c3ccccc23)c1	active
C[C@H](CO)N1C[C@H](C)[C@H](CN(C)Cc2ccc(-c3ccccc3)cc2)Oc2ccc(NC(=O)Nc3ccccc3)cc2CC1=O	active
CCOC(=O)CC1=NNC(=N)SC1	inactive
N=C(NCCC[C@H](N)C(=O)O)N[C@@H](CCC(=O)O)C(=O)O	inactive
C[C@@H]1CN([C@@H](C)CO)C(=O)c2cccc(NC(=O)NC3CCCCC3)c2O[C@@H]1CN(C)S(=O)(=O)c1cn(C)cn1	inactive
O=C(NC1CCCCC1)N1c2ccccc2C=Cc2ccccc21	inactive
